Results as given in PubChem BioAssay AID504332 (National Center for Advancing Translational Sciences (NCATS), 2011).
Hit rate of the full screen: of about 350,000 compounds, about 31,000 (8.9%) were called active. This list was built around the results that the source calls inconclusive (neither active nor inactive); the mix of calls is not that of the screen. The call rests on the fitted dose curve; in most records, active means well fitted inhibition curve with a large enough effect; inconclusive means small, poorly fitted or top-dose-only effect; inactive means no such curve, though single readings can be large or run the other way. Where the call is inconclusive, the potency comes from a doubtful curve fit.
Further: nearly all actives have a fitted effect of over 75% in size.
On the % scale 0 is the no-effect control and ±100 the full control effect; potency means the concentration at half of the fitted maximal effect; tags describe the fitted curve by direction and shape.

Each compound was assayed against Histone-lysine N-methyltransferase EHMT2 (Homo sapiens) (UniProt Q96KQ7) (assay: qHTS Assay for Inhibitors of Histone Lysine Methyltransferase G9a). Details: G9a H3K9 monomethylation, AlphaScreen, 2 h; activity, negative = inhibition: at 59 µM (top of the series) unless noted.
UniProt Q96KQ7, sequence (Q96KQ7 whole entry, looked up): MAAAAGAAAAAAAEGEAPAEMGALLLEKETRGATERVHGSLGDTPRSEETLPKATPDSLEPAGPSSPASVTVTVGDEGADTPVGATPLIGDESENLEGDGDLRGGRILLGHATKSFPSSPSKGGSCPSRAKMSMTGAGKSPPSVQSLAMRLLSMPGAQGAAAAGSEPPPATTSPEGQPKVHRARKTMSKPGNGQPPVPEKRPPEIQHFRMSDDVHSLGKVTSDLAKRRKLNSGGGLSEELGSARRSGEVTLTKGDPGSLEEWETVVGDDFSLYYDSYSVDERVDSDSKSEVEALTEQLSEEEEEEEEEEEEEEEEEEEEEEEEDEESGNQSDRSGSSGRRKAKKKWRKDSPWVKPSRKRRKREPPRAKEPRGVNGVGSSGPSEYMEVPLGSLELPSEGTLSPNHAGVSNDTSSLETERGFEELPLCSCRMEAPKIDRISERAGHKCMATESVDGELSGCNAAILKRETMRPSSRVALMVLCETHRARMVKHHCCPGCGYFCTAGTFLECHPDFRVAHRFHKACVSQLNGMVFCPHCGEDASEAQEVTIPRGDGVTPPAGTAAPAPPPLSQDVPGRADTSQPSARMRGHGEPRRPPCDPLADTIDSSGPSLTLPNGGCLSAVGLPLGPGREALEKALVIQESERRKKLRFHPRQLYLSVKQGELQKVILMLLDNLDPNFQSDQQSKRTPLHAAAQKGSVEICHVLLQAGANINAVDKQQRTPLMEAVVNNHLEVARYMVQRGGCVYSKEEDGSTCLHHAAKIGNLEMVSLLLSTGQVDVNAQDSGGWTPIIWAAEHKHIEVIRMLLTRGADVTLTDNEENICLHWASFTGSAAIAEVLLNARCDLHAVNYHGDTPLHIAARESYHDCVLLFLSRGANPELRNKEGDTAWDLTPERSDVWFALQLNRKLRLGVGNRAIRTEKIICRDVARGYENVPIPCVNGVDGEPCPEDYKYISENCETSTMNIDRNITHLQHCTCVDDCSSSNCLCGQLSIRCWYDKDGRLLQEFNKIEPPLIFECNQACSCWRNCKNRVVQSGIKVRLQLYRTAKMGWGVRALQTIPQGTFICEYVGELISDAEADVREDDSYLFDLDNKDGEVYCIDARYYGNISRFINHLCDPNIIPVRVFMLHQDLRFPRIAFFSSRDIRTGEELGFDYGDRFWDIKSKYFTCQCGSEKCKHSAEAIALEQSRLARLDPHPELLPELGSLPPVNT
Summary of the method: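 Quantitative HTS format: methyltransferase activity on a biotin-tagged H3K9 peptide is measured by AlphaScreen, using a rabbit anti-monomethyl-H3K9 antibody with streptavidin donor and anti-IgG acceptor beads. Final levels are 20 nM enzyme, 500 nM peptide, 20 uM SAM; 2 h RT.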
For `CC(Sc1nc(-c2ccccc2)cc(=O)[nH]1)C(=O)O` (stereo not drawn), the Potency was inconclusive: 56.2 µM [inhibitor, partial curve, poor fit].
With `COc1cccc(CC2(CO)CCCN(Cc3cn[nH]c3C3CCCCC3)C2)c1` (stereo not drawn) the Potency was inconclusive: 63.1 µM [inhibitor, partial curve, poor fit].
`O=C(NCSc1ccncn1)c1ccccc1` was tested, and the Potency was inconclusive: 3.16 µM [inhibitor, partial curve, poor fit].
`CN(C)CCN(Cc1ccco1)C(=O)c1cc2c(Cl)nc3ccccc3c2s1` was tested, and the Potency was inconclusive: 50.1 µM [inhibitor, partial curve].
For `COc1cc2[nH]c(=S)n(CC3CCCO3)c(=O)c2cc1OC` (stereo not drawn), the Potency was inconclusive: 3.16 µM [inhibitor, single point].
`Cc1cc(C)nc(NS(=O)(=O)c2ccc(NC(=O)Cn3c(=O)oc4ccccc43)cc2)n1` was tested, and the Potency was active: 79.4 µM.
With `CC1=CC(c2ccccc2)n2nc(NC(=O)CCC(=O)O)nc2N1` (stereo not drawn) the Potency was inconclusive: 70.8 µM [inhibitor, partial curve].
In the case of `COc1ccccc1-n1nnnc1SCc1ccccc1`, the Potency is reported as “inactive”.
`CC(C)CC(=O)Nc1cc(NC(=O)CC(C)C)cc(C(=O)NC(C)(C)C)c1` was tested, and the Potency was inconclusive: 89.1 µM [inhibitor, single point].
`Cc1nc2c(-c3ccccc3)c(C)nn2c(C)c1CCC(=O)NCc1ccc(Cl)cc1` was tested, and the Potency was “inactive”.
With `O=S1(=O)CC(NCc2ccccc2)C(Nc2ccc(Cl)cc2)C1` (stereo not drawn) the Potency was inconclusive: 31.6 µM [inhibitor, partial curve, poor fit].
`CC(=O)NC(=O)Nc1sc(=S)n(C)c1C` was tested, and the Potency was inconclusive: 31.6 µM [inhibitor, single point].
For `CC1CN(C(=S)Nc2ccccc2F)CC(C)O1` (stereo not drawn), the Potency was inconclusive: 89.1 µM [inhibitor, single point].
In the case of `COc1ccc(CCNC(=O)CSc2ccc(Br)cc2)cc1OC`, the Potency is reported as inconclusive: 50.1 µM [inhibitor, partial curve, poor fit].
`CCN(CC)C(=O)c1cc([N+](=O)[O-])cc2c1-c1ccc([N+](=O)[O-])cc1C2=C(C#N)C#N` was tested, and the Potency was active: 50.1 µM.
For `O=C(NCCCn1ccnc1)c1ccc(Br)c(S(=O)(=O)N2CCOCC2)c1`, the Potency was “inactive”.
With `COc1ccc(Cl)cc1NC(=O)CN(C)C(=O)CCCNC(=O)c1ccc(Cl)cc1` the activity, negative = inhibition was inactive: -10.6% [at 12.7 µM].
For `COc1ccc(C(=O)NC(=S)Nc2ccc(S(=O)(=O)Nc3cc(OC)ncn3)cc2)cc1`, the Potency was inconclusive: 79.4 µM [inhibitor, single point].
For `O=C1NN(c2ccc(Cl)c(Cl)c2)C(=O)/C1=C/c1cccc(OC(=O)c2cccs2)c1`, the activity, negative = inhibition was inconclusive: -111% [inhibitor].
For `Cc1cc(C)cc(OCC(=O)O/N=C(\N)c2ccccn2)c1`, the Potency was inconclusive: 50.1 µM [inhibitor, partial curve].
In the case of `CCOC(=O)CCc1c(C)c2ccc(OCc3cc([N+](=O)[O-])ccc3OC)c(C)c2oc1=O`, the Potency is reported as inconclusive: 1.26 µM [inhibitor, partial curve, poor fit].
`COc1ccc2cc3c(N)nn(C(=O)c4cccc([N+](=O)[O-])c4)c3nc2c1` was tested, and the Potency was inconclusive: 89.1 µM [inhibitor, single point].
With `CC(=O)N1CCN(S(=O)(=O)c2cccc(C(=O)Nc3ccccc3N3CCCCC3)c2)CC1` the Potency was inconclusive: 89.1 µM [inhibitor, single point].
For `Cc1cccc(OCC(=O)N(C)CCc2ccccn2)c1`, the Potency was inconclusive: 1.78 µM [inhibitor, partial curve, poor fit].
`C=CCn1c(SCC(O)Cn2c3ccccc3c3ccccc32)nnc1-c1ccco1` (stereo not drawn) was tested, and the activity, negative = inhibition was inconclusive: -80.8% [inhibitor].
In the case of `O=C(NCC(c1cccs1)N1CCOCC1)c1cc2ccccc2o1` (stereo not drawn), the Potency is reported as inconclusive: 79.4 µM [inhibitor, single point].
For `CS(=O)(=O)Nc1ccc(C(=O)NCCSCc2ccco2)cc1`, the Potency was “inactive”.
In the case of `N#Cc1c(NC(=O)C(=O)NCCCN2CCOCC2)sc2c1CCCC2`, the Potency is reported as inconclusive: 20 µM [inhibitor, single point].
For `Cc1ccc(Cn2c(/C=C/c3ccco3)nc3ccccc32)cc1`, the Potency was active: 39.8 µM.
With `Cc1ccc(-c2c(C(=O)NCc3ccc(F)cc3)oc(=O)c3ccccc23)cc1` the Potency was “inactive”.
With `CCCOc1ccc(C(=O)CCC(=O)OCC(=O)Nc2cccc(S(N)(=O)=O)c2)cc1` the Potency was “inactive”.
In the case of `COc1ccc(-c2cc(C(=O)Nc3nc4c(C)cccc4s3)c3ccccc3n2)cc1OC`, the activity, negative = inhibition is reported as inconclusive: -51.1% [inhibitor] [at 0.501 µM].
With `Cn1nc(C(=O)NCc2ccc(F)cc2)c2c1-c1ccccc1SC2` the Potency was active: 14.1 µM.
In the case of `CCOC(=O)C1=C(C)NC(C)=C(C(=O)OCC)C1c1ccccc1C=CC(=O)OC(C)(C)C`, the Potency is reported as “inactive”.
`COc1ccc(CCCc2nnc(SCC(=O)Nc3ccc(F)cc3)o2)cc1C` was tested, and the Potency was inconclusive: 5.62 µM [inhibitor, full curve, poor fit].
`NC(=O)COc1ccc(=O)n(-c2ccccc2)n1` was tested, and the Potency was inconclusive: 56.2 µM [inhibitor, partial curve, poor fit].
For `CC1C(=O)N2CCCc3cc(NC(=O)c4ccccc4F)cc1c32` (stereo not drawn), the Potency was inconclusive: 56.2 µM [inhibitor, partial curve, poor fit].
In the case of `COc1ccccc1N1CCN(C(=O)C(=O)c2cn(CC(=O)N3CCCCCC3)c3ccccc23)CC1`, the Potency is reported as inconclusive: 89.1 µM [inhibitor, single point].
With `CCSCc1nnc(SCC(=O)c2ccc(OC)cc2)n1C` the activity, negative = inhibition was inconclusive: -102% [inhibitor].
`O=C(Nc1ccccn1)c1ccc([N+](=O)[O-])o1` was tested, and the Potency was “inactive”.
In the case of `Cc1ccc(CSc2nc3nc(C)cc(C)c3c(=O)[nH]2)cc1`, the Potency is reported as “inactive”.
For `O=C(CN1C(=O)c2ccccc2S1(=O)=O)Nc1cc(S(=O)(=O)N2CCCCC2)ccc1Cl`, the Potency was inconclusive: 50.1 µM [inhibitor, partial curve].
In the case of `CSc1nc(N)nc(SCC(=O)c2ccc(C)cc2)c1C#N`, the activity, negative = inhibition is reported as inconclusive: -74.7% [inhibitor].
